According to the supplement of paper PMC10126150:
Sequences with one replicate were seen in a single cluster, so their values are uncertain.

Tested on: ATP
Experiment: switch fluorescence ratio, 500 uM ATP over buffer (Cy3 cluster intensity, sum of 5 cycles each) (fold (ratio)); higher = stronger signal-on switching upon ATP binding; sequences stand for … in TCGTCGGCAGCGTCAGATGTGTATAAGAGACAGTTTTTTTTTTTTTTTTTTTTTTTTT…TC
Conditions: aptamer strand: ATP DNA aptamer (quencher-CACCTGGGGGAGTATTGCGGAGGAAGG + anchor), 100 nM annealed; ATP concentration: 500 uM; one replicate
Outline: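 Clusters with intensities outside 100-1000 RFU were excluded. The remaining Cy3-labelled switching-strand clusters on a modified Illumina MiSeq flow-cell had been annealed to 100 nM quencher-labelled ATP aptamer and imaged in selection buffer, then after 15 min with 500 uM ATP at 22 °C, for five cycles separated by NaOH stripping and re-annealing. The fluorescence ratio, averaged per switch-domain sequence, is each cluster's summed target-cycle Cy3 intensity over its summed buffer-cycle Cy3 intensity.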
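Also: ATP exposure 15 min at 22 °C before imaging.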

Row | Sequence | switch fluorescence ratio
1 | AACCCCCTAA | 1.11
2 | TGGGATTGGA | 1.01
3 | ATCTTCCTGA | 0.983
4 | AAGGAGGGTC | 1.02
5 | ATTTATCAGC | 1.1
6 | GGAATCTCG | 0.996
7 | GTGATAGTCA | 1.04
8 | CTATTTTA | 1.1
9 | CCCGAGCACT | 3
10 | CGTAAAAATC | 1
11 | GTTTGACGTT | 1
12 | GATCCAAATG | 0.982
13 | GAACTCAGGT | 0.951
14 | TGCACTGGGC | 1.03
15 | GCGGCGACA | 1
16 | TCAGGCAGGA | 1.04
17 | AGCTACCACA | 1.09
18 | ATAGTCATGA | 0.973
19 | TCAAGGTTAG | 0.972
20 | CTCGGGAAG | 1.05
21 | TAATAAGGAT | 0.947
22 | AAACTTTTGG | 0.996
23 | AGGGACATAA | 1.08
24 | TTAGTTGCTA | 1.02
25 | ATCACGAGCG | 1.04
26 | TACGACGAAA | 4.51

Row | Sequence | switch fluorescence ratio
27 | CGGCTTCTGG | 1.04
28 | CTAAGGAGTA | 0.992
29 | CCATTGGCGA | 1.15
30 | TAGGGGGG | 0.993
31 | GAGGGCGGGC | 0.963
32 | GAAAGGTAAC | 1.02
33 | GCATAACAAG | 1.01
34 | TCGAAATGTC | 1.16
35 | AGGTGTTACA | 0.999
36 | GGGAAAACT | 1.13
37 | CAAAACGTAA | 1.09
38 | GCTTGACTGA | 0.984
39 | AGGATCGCCG | 1.01
40 | GGTGGGCTGT | 1.03
41 | TAAACCCTTT | 1.02
42 | AGGCTAATCT | 0.992
43 | CGGTGAAGAT | 1.02
44 | ATTCGAGTAC | 1.03
45 | CGTGACAACA | 1.04
46 | GGCGGCGACG | 1.06
47 | TTAAGATCGC | 0.982
48 | GAGCAATCCG | 1.67
49 | ATTGACCCGT | 1.05
50 | TAGGGTTCGG | 1.01
51 | GGAATCGCAC | 1.21
52 | TACTGCGGGC | 1.14

Row | Sequence | switch fluorescence ratio
53 | AGTGAGAATA | 1
54 | CACTGTAGAT | 1.11
55 | GCCATAAGAG | 0.987
56 | AGGTAGGAGC | 1.04
57 | AACGGAGGTG | 1.02
58 | GTTAGATGGC | 0.998
59 | TTTTAGTGTA | 0.979
60 | TACGCGACTT | 1.16
61 | CGAATTCACC | 1.07
62 | CGGAAGTTAA | 0.979
63 | TAACGCCCCG | 1.41
64 | GTAATCTTAG | 0.963
65 | TGCTGATTAC | 1.09
66 | CTTAACCAAC | 1.15
67 | GCCGAGTTAA | 0.991
68 | GGAGTAGGTC | 0.959
69 | TTTTCCTGT | 1.02
70 | ATCAGTTTGA | 0.998
71 | CATTTAGCAG | 1.05
72 | CCCCGTGCAG | 1.09
73 | AAGACCTAGT | 0.975
74 | AAATACAAGC | 1.01
75 | TAGTCTGAGT | 1.02
76 | GAAGGGTAGA | 0.986
77 | TATTTGCCGG | 1.03
